Data as given in US6887983B2, “Purified 20 kDA presenilin 2 C-terminal fragment and methods of screening for compounds that inhibit proteolysis of presenilin 2” (The General Hospital Corporation, priority 1997, dated 2005).
Where a SMILES comes first, the peptide text is derived from it. [ ]: non-standard residue; d: D form. The star is where a group is joined. Sta = CC(C)C[C@H](N)[C@@H](O)CC(=O)O; Isovaleryl = CC(C)CC(=O)*

Columns and labels:
degradation of PS2 = test: Degradation and turnover of PS2 in tetracycline-inducible PS2-expressing H4 cells, Western blot of detergent-soluble/resistant fractions; format: cell-based, human; conditions: for turnover of the PS2-CTF: cell-permeable protease inhibitors, inducible PS2 H4 cells
Procedure: The H4 founder cells were transfected with 10 μg of each construct and 1 μg of pCNH2hygro, conferring resistance to hygromycin. Hygromycin-resistant colonies were isolated in the presence of tetracycline and screened for PS2 expression by Western blot analysis using antibodies against the FLAG epitope-tag upon removal of tetracycline. […] For induction of PS2, cells were washed five times with prewarmed phosphate-buffered saline to retrieve residual tetracycline and then incubated with complete media without tetracycline for the indicated hours.
Cells were fractionated into detergent-soluble and resistant fractions with CSK buffer (10 mM PIPES (pH 6.8), 100 mM NaCl, 2.5 mM MgCl2, 1 mM CaCl2, 0.3 M sucrose, 1% Triton X-100, 1 mM phenylmethysulfonyl fluoride, 1 μg/ml aprotinin, 1 μg/ml chymostatin, 1 μg/ml leupeptin, 1 μg/ml pepstatin A) (Papadopoulos, V., and Hall, P. F., J. Cell. Biol. 108:553-567(1989)). Cells were washed with ice-cold phosphate-buffered saline and incubated in CSK buffer for 5 min on ice with gentle rocking. The supernatant (detergent-soluble fraction) was collected, and the insoluble structure that remained on the dish was collected, washed one with CSK buffer, and used as detergent-insoluble fraction. The resulting detergent-resistant pellet which consists primarily of cytoskeletal proteins was further incubated with DNase (300 μg/ml) (Papadopoulos, V., and Hall, P. F., J. Cell. Biol. 108:553-567 (1989); Hamaguchi, M., and Hanafusa, H., Proc. Natl. Acad. Sci. USA 84:2312-2316 (1987); Osborn, M., and Weber, K., Exp. Cell Res. 106:339-349 (1977)).
Protein samples were quantiated by the BCA protein assay kit (Pierce). SDS-PAGE was carried out using 4-20% gradient Tris-glycine gels under reducing conditions. Proteins were transferred to polyvinylidene difluoride membrane (Bio-Rad) using a semi-dry electrotransfer system (Hoefer). The blots were blocked with 5% non-fat dry milk in TBST (25 mM Tris (pH 7.6), 137 mM NaCl, 0.15% Tween 20) for 1.5 h, incbated primary antibodies (M2, 3 μg/ml; D-8, 1 to 1000; polyclonal anti-ubiquitin, 1 to 1000; Ubi-1, 1 to 1500) for 1.5 h, and secondary antibodies (horseradish perodixase-conjugated anti-mouse or rabbit antibodies, 1 to 5000) in TBST. Between steps, the blots were washed with TBST for 30 min. For Western blotting with M2 antibodies, 5% (w/v) non-fat dry milk was included in the incubation steps for primary and secondary antibodies. The blot was visualized using the ECL Western blot detection system (Amersham). […] The samples were precleared with protein A conjugated with magnetic beads (Perceptive Diagnosis) for 1 h in the cold room, incubated with either control (rabbit anti-mouse IgG) or anti-FLAG (D-8 at 10 μg/ml) antibodies overnight, further incubated with protein A-magnetic beads (30 μl/sample) for 2 h in the cold room, and washed three times with IP buffer. Immunoprecipitates were collected using a magnetic bead collector, boiled in sample buffer, and subjected to SDS-PAGE and Western blotting using monoclonal anti-ubiquitiin antibodies.
To further investigate the degradation of PS2, the effects of a set of known cell-permeable protease inhibitors on the degradation of PS2, including pepstatin A, Pefabloc SC, E-64, leupeptin, and aprotinin were tested. […] Next, PS2 was tested to determine whether it is polyubiquitinated and degraded by the ubiquitin-proteasome pathway (Hochstrasser, M., Curr. Opin. Cell Biol. 7:215-223 (1995); Hochstrasser, M., Cell. 84:813-815 (1996); Ciechanover, A., Cell 79:13-21 (1994); Finley, D., and Chau, V., Annu. Rev. Cell Biol. 7:25-69(1991)).
To determine the cellular site for polyubiquitination and proteasomal degradation of PS2, the effects of BFA were tested.

[1] = system: full-length 54 kDa PS2 cleavage; test: Cleavage of full-length PS2 during etoposide-induced apoptosis in inducible H4 cells (N-terminal FLAG PS2); format: cell-based, human; conditions: 20 μM etoposide
Procedure: FIG. 8. Cleavage of full-length 54 kDa PS2 by a zVAD-sensitive protease activated during etoposide-induced apoptosis. Inducible H4 cells expressing PS2 containing N-terminal FLAG epitope were induced for 12 hours and further incubated with media containing 20 μM etoposide. Alternative (34 kDa NTF) and normal (f; 30 kDa) N-terminal cleavage products detected by anti-FLAG antibody and alternative (20K CTF) and endogenous plus normal C-terminal cleavage products (e/f) detected by αPS2Loop were indicated by arrows.
Thus, whether the alternative PS2-CTF was generated from full-length 54 kDa PS2 during apoptosis was tested. […] The alternative NTF was 34 kDa while the “normal” NTF, labeled as band f in the top panel of FIG. 8, was 30 kDa. The alternative PS2 cleavage fragments were first observed at 3 hours post-treatment with etoposide.

endogenous PS1 cleavage = test: Apoptosis-associated cleavage of endogenous PS1 in H4 cells; format: cell-based, human
Procedure: FIG. 11. […] Inducible PS1 cells were generated similar to as described herein. High-(clone 1.22) and low-(clone 1.24) expressing clones were grown in the presence or absence of tetracycline for 24 hours. […] Identical samples used for FIG. 8 were stained with αPS1 Loop. […] Asterisk indicates non-specific bands.
Whether endogenous PS1 is cleaved by CP32-like proteases following induction of apoptosis was also tested.

[2] = system: generation of alternative 14 kDa PS1-CTF; test: Generation of alternative 14 kDa PS1-CTF in inducible H4 cells overexpressing PS1; format: cell-based, human; conditions: PS1-overexpressing cell lines
Procedure: FIG. 11. […] Inducible PS1 cells were generated similar to as described herein. High-(clone 1.22) and low-(clone 1.24) expressing clones were grown in the presence or absence of tetracycline for 24 hours. As similar to those shown for PS2, multiple PS1 CTFs were detected in the PS 1-overproducing cells, including 23 kDa endogenous PS1 CTF (arrow e′), transgene-derived normal cleavage product (arrow f′), and aberrant 14 kDa PS1 fragment. (b, c, d) Cleavage of endogenous PS1 CTF during STS-induced apoptosis. Identical samples used for FIG. 8 were stained with αPS1 Loop. PS1 CTF was further cleaved into smaller 14 kDa fragment during apoptotic process. […] Asterisk indicates non-specific bands.
The point mutations in the potential aspartate cleavage sites of PS2 (D326A and D329A) and control aspartate (D308A) were introduced into a PS2 open reading frame by site-directed mutagenesis using Muta-Gene phagemid kit (BioRad). The inducible construct encoding the full-length PS1 with 3′ FLAG epitope sequence was generated as described for PS2 herein. […]
Next, whether PS1, a closely related homologue of PS2, also undergoes alternative cleavage when overexpressed and/or during apoptosis was tested. […] However, in the clonal cell line expressing lower levels of PS1 (clone IF24), full-length PS1 and the normal CTF were predominantly detected while the alternative 14 kDa CTF fragment was not detectable.

[3] = system: generation of the 20 kDa PS2-CTF; test: Generation of 20 kDa PS2-CTF in H4 cells overexpressing PS2, Western blot with αPS2Loop; conditions: FIG. 7d; for generation of the 20 kDa PS2-CTF: cells overexpressing PS2, induced 24 h, inhibitor added at induction
[4] = system: endogenous PS2 cleavage in H4 human neuroglioma cells; test: Apoptotic cleavage of endogenous PS2 in untransfected H4 cells (staurosporine or etoposide), Western blot

## C[C@H]1CCC/C=C/[C@@H]2C[C@H](O)C[C@H]2[C@H](O)/C=C/C(=O)O1 [BFA, Brefeldin A]
Degradation of PS2; BFA 5 μg/ml, 12 h after 12 h induction, FIG. 6
  degradation of full-length PS2: rapid degradation of full-length PS2

## CC(C)C[C@H](NC(=O)[C@H]1O[C@@H]1C(=O)O)C(=O)NCCCCN=C(N)N [E-64]
Degradation of PS2
  turnover of the PS2-CTF: None of these protease inhibitors affected the turnover of the PS2-CTF

## Cl.NCCc1ccc(S(=O)(=O)F)cc1 [Pefabloc SC]
Degradation of PS2
  turnover of the PS2-CTF: None of these protease inhibitors affected the turnover of the PS2-CTF

## COc1cc([C@@H]2c3cc4c(cc3[C@@H](O[C@@H]3O[C@@H]5CO[C@@H](C)O[C@H]5[C@H](O)[C@H]3O)[C@H]3COC(=O)[C@H]23)OCO4)cc(OC)c1O [etoposide]
[1]
  time at which alternative PS2 cleavage fragments were first observed post-treatment: 3 h
[1]; low-expressing inducible H4 line, 12 h post-induction, FIG. 8
  generation of alternative 20 kDa CTF and alternative N-terminal fragment (NTF): the alternative 20 kDa CTF as well as the corresponding alternative N-terminal fragment (NTF) were generated
Endogenous PS1 cleavage; H4 cells, FIG. 11b, 11d
  generation of the 14 kDa PS1-CTF on induction of apoptosis: led to the generation of the 14 kDa CTF
  phosphorylation of the endogenous PS1 CTF: did not block phosphorylation of the endogenous PS1-CTF

## CC(=O)N[C@@H](CSC(=O)[C@]1([C@@H](O)C(C)C)NC(=O)[C@H](C)[C@@H]1O)C(=O)O [lactacystin, Lactacystin]
Degradation of PS2; ALLN 50 μM or lactacystin 10 μM for 12 h after 12 h induction, clone WF2, FIG. 5A
  levels of HMW-PS2: dramatically increased levels of HMW-PS2

## CC(=O)N[C@@H](CC(C)C)C(=O)N[C@@H](CC(C)C)C(=O)N[C@H](C=O)CCCNC(=N)N [leupeptin]
Degradation of PS2
  turnover of the PS2-CTF: None of these protease inhibitors affected the turnover of the PS2-CTF

## CC(C)CC(=O)N[C@H](C(=O)N[C@H](C(=O)N[C@@H](CC(C)C)[C@@H](O)CC(=O)N[C@@H](C)C(=O)N[C@@H](CC(C)C)[C@@H](O)CC(=O)O)C(C)C)C(C)C [pepstatin A] (Isovaleryl-VV[Sta]A[Sta]-OH)
Degradation of PS2
  turnover of the PS2-CTF: None of these protease inhibitors affected the turnover of the PS2-CTF

## COC(=O)CC[C@H](NC(=O)[C@H](CC(=O)OC)NC(=O)OCc1ccccc1)C(=O)N[C@H](C(=O)N[C@@H](CC(=O)OC)C(=O)CF)C(C)C [zDEVD-fmk]
[2]
  generation of alternative 14 kDa PS1-CTF: blocked
Endogenous PS1 cleavage; STS- or etoposide-induced, FIGS. 11c and 11d
  apoptosis-associated cleavage of endogenous PS1: blocked
[3]
  generation of the 20 kDa PS2-CTF: blocked
[3]; listed as zDEVD
  generation of the 20 kDa PS2-CTF: blocked the generation of the 20 kDa PS2-CTF
[3]; cells overexpressing PS2
  levels of the endogenous 25 kDa CTF, the 26 kDa transgene-derived CTF, or other PS2 species: no effect
[4]; 1 μM STS 18 h, relative amount of 20 kDa fragment, FIG. 9e
  concentration equally effective in inhibiting apoptosis-induced cleavage of PS2: 100 µM
[4]; H4 cells undergoing apoptosis
  normal processing of PS2 (generation of 25 kDa endogenous fragment): no effect on normal processing of PS2
[4]; H4 cells, inhibitor pre-treatment 1 h, 2 μM STS or 20 μM etoposide 18 h, FIGS. 9b-9d
  alternative cleavage of endogenous PS2 during staurosporine-induced or etoposide-induced apoptosis: specifically blocked

## aprotinin
Degradation of PS2
  turnover of the PS2-CTF: None of these protease inhibitors affected the turnover of the PS2-CTF
